# Assay results as given in the supplement of paper PMC3334620.
# In all, about 33,000 sequences were measured (“E-score (-0.5 to 0.5)”: median about -0.053, highest 2% from about 0.37 on). The list shows a part of the results.
# Molecular target: Hap1 (UniProt P0CE41)
# Experiment: PBM E-score (8-mer binding enrichment) (E-score (-0.5 to 0.5)); higher = stronger / more preferred TF binding; most listed sequences are background and not binding sites
# Details: protein concentration: 200 nM; construct: GST-DNA-binding domain
# How it was run: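 Each ungapped eight-base word and its reverse complement, pooled, received an E-score from the Universal PBM Analysis Suite. Underlying scans, normalised with masliner, recorded fluorescent anti-GST bound to GST-tagged yeast transcription factors. These were applied at about 100-200 nM to universal all-10-mer Agilent arrays double-stranded by primer extension.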
# Chain of UniProt P0CE41 (P0CE41 whole entry): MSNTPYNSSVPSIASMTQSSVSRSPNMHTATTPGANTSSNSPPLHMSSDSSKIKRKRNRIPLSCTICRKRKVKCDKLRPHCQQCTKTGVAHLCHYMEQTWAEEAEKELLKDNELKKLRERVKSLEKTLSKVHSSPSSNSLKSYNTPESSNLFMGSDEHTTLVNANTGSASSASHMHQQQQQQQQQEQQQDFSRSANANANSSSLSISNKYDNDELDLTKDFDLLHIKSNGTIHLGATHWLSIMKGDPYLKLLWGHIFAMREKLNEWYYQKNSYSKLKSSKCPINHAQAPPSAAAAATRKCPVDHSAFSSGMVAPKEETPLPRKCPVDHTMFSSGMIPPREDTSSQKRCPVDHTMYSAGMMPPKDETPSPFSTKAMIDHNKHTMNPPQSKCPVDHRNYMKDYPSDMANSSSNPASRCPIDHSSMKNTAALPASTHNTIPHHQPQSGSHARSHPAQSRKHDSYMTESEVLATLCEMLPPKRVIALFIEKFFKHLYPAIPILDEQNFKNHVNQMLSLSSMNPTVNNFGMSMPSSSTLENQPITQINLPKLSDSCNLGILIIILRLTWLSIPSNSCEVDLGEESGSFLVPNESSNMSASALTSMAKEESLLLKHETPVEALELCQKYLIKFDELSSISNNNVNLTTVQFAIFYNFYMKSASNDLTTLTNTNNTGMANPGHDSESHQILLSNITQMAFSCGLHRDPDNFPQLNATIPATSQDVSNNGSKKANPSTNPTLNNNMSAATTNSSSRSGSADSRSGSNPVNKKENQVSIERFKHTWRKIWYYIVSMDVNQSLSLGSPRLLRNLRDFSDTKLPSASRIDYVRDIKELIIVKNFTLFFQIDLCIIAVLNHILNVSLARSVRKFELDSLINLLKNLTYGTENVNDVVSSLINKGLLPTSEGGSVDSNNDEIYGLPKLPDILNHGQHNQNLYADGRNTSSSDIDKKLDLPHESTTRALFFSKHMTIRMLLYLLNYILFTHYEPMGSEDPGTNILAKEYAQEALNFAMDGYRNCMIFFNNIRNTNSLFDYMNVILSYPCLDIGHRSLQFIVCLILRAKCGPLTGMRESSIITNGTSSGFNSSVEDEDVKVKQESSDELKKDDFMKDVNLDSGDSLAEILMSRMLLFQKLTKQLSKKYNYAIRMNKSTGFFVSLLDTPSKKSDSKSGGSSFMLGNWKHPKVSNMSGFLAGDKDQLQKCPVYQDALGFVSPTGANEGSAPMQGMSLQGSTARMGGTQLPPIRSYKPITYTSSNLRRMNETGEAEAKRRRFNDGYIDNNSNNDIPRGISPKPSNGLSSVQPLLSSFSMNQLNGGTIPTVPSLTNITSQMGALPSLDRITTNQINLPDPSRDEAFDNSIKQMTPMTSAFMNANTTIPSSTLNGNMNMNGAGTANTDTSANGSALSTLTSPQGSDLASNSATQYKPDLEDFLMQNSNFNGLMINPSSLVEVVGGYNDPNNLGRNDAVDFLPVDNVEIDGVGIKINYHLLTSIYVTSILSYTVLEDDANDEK
row,Sequence,PBM E-score
1,CGACCTCA,-0.169
2,CCCTACGA,-0.304
3,CTCTGGCA,-0.217
4,CTTTTACC,0.0063
5,TTCTTCAA,-0.155
6,AATCAGCC,-0.134
7,TAAGATAA,-0.0913
8,CTGTTGTC,0.103
9,ATCTTGAA,-0.139
10,AGGGTACA,-0.185
11,ACAGGGTC,0.0422
12,CGTCTTAA,-0.122
13,GTTTATGA,-0.0644
14,CGATGTGA,-0.0762
15,ATACCTGG,0.0136
16,CAGTGAGA,-0.107
17,TCCAAACA,-0.283
18,GACAAGAC,0.11
19,CGCTTTTC,0.0796
20,CGAAGACG,0.0145
21,AACGTTGT,-0.162
22,AGTCGGTC,0.279
23,AATGTTAC,-0.0284
24,CGGTCTTA,0.404
25,AGCTTCTC,-0.166

row,Sequence,PBM E-score
1,CACATACC,-0.00781
2,GGTGGCGA,-0.037
3,GAACTTAC,-0.124
4,GTCACGAA,-0.00509
5,CGGACAAA,0.405
6,CGTGGGCC,0.157
7,AGCAAAAT,0.065
8,CTGGACGA,-0.158
9,AAAACGGC,0.2
10,CGGAACAA,0.349
11,ATATCATG,-0.214
12,CCTTCTAA,-0.349
13,CGAATACA,0.16
14,ATGTGCAG,-0.198
15,CCTAGGGC,-0.12
16,ATTATTAC,-0.0189
17,CATGAATG,-0.0771
18,GCTGGCTA,-0.233
19,CCAGCGGG,0.148
20,ATATGTAG,-0.27
21,AAAACACG,-0.0285
22,ATGCAGAA,-0.178
23,AGTTTTCC,0.237
24,AGCTTAAC,-0.0285
25,GCAGTAAA,0.007

row,Sequence,PBM E-score
1,CATACTTC,-0.122
2,CTTCCTTC,-0.207
3,AGAAAGAT,-0.138
4,TGCGGCAA,-0.00354
5,GTAACCAC,-0.228
6,AAGGTGTC,0.0209
7,ACGGTAGT,-0.00902
8,AATAGGGG,0.0799
9,CGCAGGAG,-0.0823
10,GCCCACAC,-0.0996
11,CTATGCTC,-0.243
12,ATTAGGGA,-0.0117
13,AAACGCTG,-0.199
14,CGGTACAC,0.0857
15,GACTGATA,-0.0852
16,AGCTCCGC,0.306
17,AACAAGAC,0.0147
18,ACTAACGC,-0.0057
19,CTGATGTC,-0.015
20,ACTGAACC,0.0839
21,AACGGCGA,0.267
22,GGGCATCA,-0.0958
23,CACTGGGA,-0.27
24,TAGTTCCA,-0.106
25,AATATCTG,-0.0154

row,Sequence,PBM E-score
1,AATGGTGC,-0.0746
2,AGGGGGGA,-0.173
3,ATTCTTCA,-0.121
4,GAAACCGC,0.195
5,AATGTTGG,-0.052
6,ATTTAACG,0.251
7,AAGGGCCT,-0.119
8,CGTAGCCC,0.0376
9,ATCGATTA,-0.0432
10,GCACTACA,-0.183
11,ACGTATCT,-0.0518
12,CCAATGCC,0.171
13,ACTCCTAG,-0.327
14,ATGACACC,-0.153
15,TCGGAACA,0.349
16,GGGGCTGA,-0.241
17,GAGCGTCC,-0.0968
18,AATGGACG,0.0767
19,AGAGTCGC,-0.174
20,ATCATAAC,-0.13
21,GGATCTTA,0.149
22,CTAGAAGC,0.028
23,CCAGTAGA,-0.267
24,AGCATTCG,0.0912
25,ACCTTAGA,-0.0585

row,Sequence,PBM E-score
1,AGAAGCTG,-0.149
2,ACAGATTA,-0.147
3,AGGATGCC,-0.202
4,AGTAGAAC,-0.157
5,CTATTAAA,-0.177
6,CCTGGCAC,0.0116
7,AATTAGTG,-0.0879
8,GAATCCCA,-0.205
9,TCGTTCAA,-0.246
10,CGGAGTCA,0.313
11,AGTATAAC,0.0368
12,CAGGGCCG,0.185
13,ATTGCTGC,0.0984
14,CAACCCTC,-0.111
15,GGTTAACA,0.0714
16,CCCGGCTA,0.344
17,CAAAAAGC,0.0709
18,CGCGCGGC,0.27
19,ATCTTAAC,-0.00249
20,ATTGTCCA,-0.128
21,AACAATTC,-0.155
22,AGGTTTAG,-0.116
23,TATCCCGA,0.221
24,CAGGTCTC,-0.243
25,CCGCCGCC,0.193

row,Sequence,PBM E-score
1,GCAAGCAA,-0.112
2,AATTGGAG,-0.233
3,CATGCGAC,-0.239
4,CAAATTTA,-0.0445
5,ACTCGTCC,0.119
6,GAGCACAA,0.00705
7,AACGGTAG,-0.00937
8,GCACTGGC,-0.216
9,ATGCTTAC,-0.296
10,CTTCGAAG,-0.159
11,GATCGTGC,0.0569
12,GAAAAGCA,-0.118
13,CACCAGAC,-0.173
14,ACGCAAAA,-0.106
15,CCCCTACA,-0.218
16,AGTTTCAT,-0.0777
17,GCAGCATA,-0.109
18,TACATTCA,-0.318
19,CCACCGCA,0.00756
20,TACAGACA,-0.154
21,GGTTTTAC,0.147
22,CCTTCCGA,0.0743
23,TGACGACA,-0.0107
24,CCCGCGCA,0.147
25,ATCTTGTG,-0.197

row,Sequence,PBM E-score
1,AAGGAAGT,0.113
2,CATAACCG,0.133
3,CCCCGGCC,0.348
4,ATCCTCAG,-0.0491
5,CGCCTCGA,-0.0556
6,AACAAAGC,-0.0164
7,AAGCGGTA,0.038
8,ACGCGAGG,-0.0101
9,CCTCTATC,-0.0326
10,GCTTCACC,-0.12
11,CTCATCAG,-0.0797
12,CAGCGTGA,-0.229
13,AGGACCGA,0.311
14,AGGATTTA,0.227
15,ATGTTTAG,-0.239
16,TCTCCCAA,-0.0542
17,AGTGTCAT,-0.133
18,AAGATAAA,0.0315
19,AGTGTGGA,-0.189
20,ATTCGACG,-0.116
21,ATACCCAC,0.154
22,TATTCAAA,-0.0863
